PubChem BioAssay AID686978 (National Center for Advancing Translational Sciences (NCATS), 2013)
Screen size: about 420,000 compounds; about 64,000 (15%) were called active. The shares of active, inactive and inconclusive entries below differ from those in the screen. Calls follow the shape of the dose curve; as a rule, active = well fitted inhibition curve with a large enough effect; inconclusive = small, poorly fitted or top-dose-only effect; inactive = flat fitted curve, though single readings scatter. Potencies of inconclusive entries are left out as doubtful fits.

Test: qHTS for Inhibitors of human tyrosyl-DNA phosphodiesterase 1 (TDP1): qHTS in cells in absence of CPT; also: nearly all actives have a fitted effect of over 55% in size
Settings: DT40 Tdp1-/- hTDP1 cells, no CPT, ATP luminescence, 48 h; activity change, negative = growth inhibition: at 46.2 µM (top of the series) unless noted
Method in brief: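 Luminescent ATP content (CellTiter-Glo) served as the growth readout. Knockout chicken DT40 cells expressing human TDP1 were exposed to compounds without camptothecin for a minimum 48 hr at 37 °C.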
% is scaled to controls: 0 for no effect and ±100 for the full control effect; potency is read from the fitted curve at half-maximal effect; tags tell the direction and shape of the fitted curve.

Structure (SMILES)	Potency	activity change, negative = growth inhibition
O=C(C[C@@H]1C/C=C\CC[C@@H](Cc2ccc(F)cc2)C(=O)OC[C@@H](Cc2ccccc2)NC1=O)NCCO	inconclusive [inhibitor, single point]	
Cc1ccc(-n2ncc(C(=O)NCCCN3CCN(C)CC3)c2C2CCN(C(=O)OC(C)(C)C)CC2)c(C)c1	inconclusive [inhibitor, single point]	
CN(CCc1ccccn1)C(=O)CCC1CCCN(C(=O)c2cccc(N(C)C)c2)C1 (stereo not given)		inactive: -2.83%
CCCCOC(=O)c1cc(C)nc2ccc(Br)cc12	inconclusive [inhibitor, partial curve]	
Cc1cc(/C=N/NC(=O)CC2(C)OCCO2)c(C)n1-c1cc(Cl)cc(Cl)c1	inconclusive [inhibitor, single point]	
C=C(C)c1cccc(C(C)(C)NC(=O)N2CCN(c3ccccn3)CC2)c1	inconclusive [inhibitor, single point]	
COc1ccc(OCCn2ccnc2C)cc1		inactive: 13.3%
COc1ccc(CCc2nnc(NS(C)(=O)=O)s2)cc1		inactive: 5.16%
COc1ccc(CC(=O)NCc2ccccc2)cc1S(=O)(=O)N1CCOCC1		inactive: -28.3%
CCCc1c(C)c2ccc(OCC(C)=O)cc2oc1=O		inactive: -11.4%
O=C(Nc1ccc2[nH]ccc2c1)c1ccc(F)cc1		inconclusive: -34.9% [inhibitor]
CCOC(=O)c1c(NC2=NS(=O)(=O)c3ccccc32)sc2c1CCC(C)C2 (stereo not given)	inconclusive [inhibitor, single point]	
O=C(CCn1cnc2onc(-c3ccc(F)cc3)c2c1=O)N1CCN(c2ccccc2F)CC1	inconclusive [inhibitor, single point]	
O=C(NCc1ccccc1)C(c1ccc(-c2ccccc2)cc1)n1c(=O)c(-c2ccco2)nc2ccccc21 (stereo not given)	inconclusive [inhibitor, single point]	
COc1ccc(S(=O)(=O)N2CCc3ccccc32)cc1C(=O)Nc1ccc(NC(C)=O)cc1	inconclusive [inhibitor, partial curve]	
COc1ccc(OC)c(/C=C/c2ccc3ccccc3n2)c1	inconclusive [inhibitor, single point]	
COc1cccc(NC(=O)CN(C)C(=O)c2ccc(-c3cccc(C(F)(F)F)c3)o2)c1	inconclusive [inhibitor, single point]	
C/C(=N\Nc1nc2c(s1)CCCC2)c1ccc(Cl)cc1	active: 8.2 µM	
COc1ccc(/C(O)=C2/C(=O)C(=O)N(CC3CCCO3)C2c2ccc(OC)c(OC)c2)cc1 (stereo not given)		inactive: 5.95%
NS(=O)(=O)c1ccc(NC(=O)CSc2nc3c(cnn3-c3ccccn3)c(=O)[nH]2)cc1		inactive: 9.15%
Cc1ccc(C(=O)CC2(O)C(=O)N(Cc3ccccc3)c3ccccc32)c(C)c1 (stereo not given)	inconclusive [inhibitor, single point]	
Cc1ccc2c(CC(=O)N(Cc3cccc(Cl)c3)C3CCS(=O)(=O)C3)coc2c1 (stereo not given)	inconclusive [inhibitor, single point]	
CCOC(=O)C1CCCN(C(=O)c2ccc(NC(=O)c3nsc4ccccc34)cc2)C1 (stereo not given)	active: 16.4 µM	
COC(=O)CC(c1ccc(OC)c(OC)c1)c1ccc(OC)c(OC)c1		inactive: -16.7%

Structure (SMILES)	Potency	activity change, negative = growth inhibition
Cc1ccc(C(=O)NC(C)c2ccc(S(N)(=O)=O)cc2)s1 (stereo not given)		inactive: -1.7%
CC(Cc1cccs1)NC(=O)Nc1ccc([N+](=O)[O-])cc1 (stereo not given)	active: 16.4 µM	
O=C(/C=C/c1ccccc1)NCC(=O)N/N=C/c1cccs1		inactive: 4.43%
CCOC(=O)c1cc(C#N)c(SCC(=O)Nc2ccc(C(C)=O)cc2)[nH]c1=O	inconclusive [inhibitor, single point]	
Cc1ccc(NC(=O)CN(C)C(=O)Cc2c(Cl)cccc2Cl)cc1	active: 16.4 µM	
O=C(CN1CCN(c2ccccn2)CC1)NC(=O)NC1CCCCC1		inactive: -19.9%
Cc1cc(C)cc(NC(=O)CCN2CCOCC2)c1		inactive: -25.5%
Cc1ccc(OCC(=O)Nc2ccc3c(c2)nc(CCN2CCN(c4ccccn4)CC2)n3C)cc1	active: 20.6 µM	
Cc1ccc(C)c(OCC(=O)N2CCN(C(=O)c3ccco3)CC2)c1	inconclusive [inhibitor, single point]	
CCn1c(=N)n(CC(=O)c2ccco2)c2ccccc21	inconclusive [inhibitor, single point]	
Cc1ccnc(NC(=O)c2cccc(NC(=O)COc3ccccc3)c2)c1	inconclusive [inhibitor, single point]	
COc1ccc(Cl)cc1NC(=O)Cn1cnc2sc(C)c(S(=O)(=O)N3CCN(c4ccccc4OC)CC3)c2c1=O	active: 7.31 µM	
CCCCNC(=S)N1CCN(c2ccccc2Cl)CC1		inactive: -25.5%
C(=C\c1ccccc1)/C=N/Nc1nc(N2CCOCC2)nc(N2CCOCC2)n1		inconclusive: -37.6% [inhibitor]
C[C@@H](NC(=O)c1ncn(C)c1C(=O)N[C@H](C)c1ccccc1)c1ccccc1	inconclusive [inhibitor, partial curve]	
Cc1ccc(Oc2c(C=O)c3ccccc3n2C)cc1	inconclusive [inhibitor, single point]	
CCN1CCN(c2ccc(S(=O)(=O)N3CCCCC3)cc2NC(=O)Cc2ccc(OC)cc2)CC1	inconclusive [inhibitor, single point]	
COc1ccc(Cl)cc1-n1c(=S)sc2c(=O)[nH]c(SCC(=O)C(C)(C)C)nc21	inconclusive [inhibitor, single point]	
C=CCn1c(-c2cc(-c3ccc(C)cc3)nc3ccccc23)n[nH]c1=S	inconclusive [inhibitor, single point]	
CC(=O)N1C[C@H]2CON(C)[C@H]2C[C@H]1c1cccc(-c2ccccc2C)c1		inactive: -29.5%
O=C1CC(N(CCc2ccccc2)C(=S)Nc2ccccc2)C(=O)N1c1ccc(F)cc1 (stereo not given)	inconclusive [inhibitor, full curve, poor fit]	
COC(=O)c1c(C)[nH]c(C(=O)/C=C/c2cccc(Cl)c2)c1C	inconclusive [inhibitor, single point]	
CC(Oc1ccccc1)C(=O)NCC1Cc2cc(F)cc(-c3ccccn3)c2O1 (stereo not given)		inactive: -22.2%
COc1ccc(C2c3c(ccc4ccccc34)Oc3ncn4nc(Cc5ccccc5)nc4c32)cc1OC (stereo not given)	inconclusive [inhibitor, single point]	

Structure (SMILES)	Potency	activity change, negative = growth inhibition
Cc1ccc(CCNS(=O)(=O)c2ccc3c(c2)NC(=O)C(C)C(=O)N3)cc1 (stereo not given)	active: 23.1 µM	
O=C(CSc1nnc(CNC(=O)c2c(F)cccc2F)o1)Nc1ccc2c(c1)OCCO2		inactive: -25.5%
COc1cccc(N2CCN(Cc3cc(=O)oc4cc(C)ccc34)CC2)c1	inconclusive [inhibitor, single point]	
Cc1ccc2c(c1)C(c1ccc(F)cc1)N(C(=O)c1cccc(C(F)(F)F)c1)CC(=O)N2 (stereo not given)	inconclusive [inhibitor, single point]	
Cc1ccc(-n2nnnc2CNC(=O)c2ccccc2C)cc1C		inactive: -10.6%
COC(=O)c1cc(C)ccc1/C=C1/Cc2c(C)cc(C)cc2C1=O	inconclusive [inhibitor, full curve, poor fit]	
CCOC(=O)C1(C)CCCN(C(=O)c2cccc3ccccc23)C1 (stereo not given)		inactive: -25.1%
COc1cccc(-c2ccnc(-n3ncc(C(=O)NCC(C)(C)CN(C)C)c3C)n2)c1		inactive: 4.16%
O=C(CSc1nnc(-c2ccc(F)cc2)o1)Nc1ccccc1N1CCOCC1	inconclusive [inhibitor, single point]	
CCN(CC)c1ccc(/C=C/c2cccc[n+]2C)c(OC)c1	active: 0.0517 µM	
O=C1CC(c2ccco2)c2ccc3ccccc3c2N1 (stereo not given)	inconclusive [inhibitor, single point]	
COc1cccc(NC(=O)CN2C(=O)C(c3ccc(C)cc3)=NC23CCCCCC3)c1	inconclusive [inhibitor, single point]	
CC(C)OCCCN1C(=O)c2[nH]nc(-c3ccccc3O)c2C1c1cccc(OCc2ccccc2)c1 (stereo not given)	inconclusive [inhibitor, partial curve, poor fit]	
O=C(COC(=O)Cn1cnc2ccccc2c1=O)Nc1ccccc1OC(F)F		inactive: -25.5%
S=c1[nH]nc(-c2ccccn2)n1/N=C/c1ccc(Br)s1		inactive: -8.27%
N#Cc1cccc(NC(=O)CCNS(=O)(=O)c2ccc3c(c2)CCN3C(=O)C2CC2)c1	inconclusive [inhibitor, partial curve, poor fit]	
COC1=C(C)C(=O)C2=C(C1=O)C1C3CC4=C(C(=O)C(OC)=C(C)C4=O)C(CNC(=O)C(C)=O)N3C(C#N)C(C2)N1C (stereo not given)	active: 0.0259 µM	
O=[N+]([O-])c1cnc(Nc2ccc(Cl)cn2)c([N+](=O)[O-])c1	inconclusive [inhibitor, single point]	
C=CC[C@@H](CC(=O)N[C@@H](CO)Cc1ccccc1)C(=O)N[C@@H](COC(=O)[C@@H](CC=C)CC(=O)OC(C)(C)C)Cc1c[nH]c2ccccc12	active: 13 µM	
CCOC(=O)c1c(C)[nH]c(CCC(=O)NCCCN2CCN(c3ccccc3F)CC2)c1C	inconclusive [inhibitor, single point]	
Cc1nc2nc(CSc3nc4ccccc4s3)cc(=O)n2[nH]1		inactive: -12%
O=C(Nc1nnc(S(=O)(=O)N2CCc3ccccc32)s1)c1ccccc1Cl	inconclusive [inhibitor, single point]	
